Results on 23 compounds are retold here after PubChem BioAssay AID2202238 (Ras Initiative Chemistry Research Team, Frederick National …, 2025).

This assay has as its target GTPase KRas (Homo sapiens) (UniProt P01116). Nature of the assay: Covalent labelling of cysteine mutants by fragments, read by mass spectrometry (AID 2202238). Also noted: protein at 5 µM with 500 µM competing thiol for 1.5 h. The conditions noted are these: KRAS G12D cysteine mutants, disulfide tethering, MALDI-TOF labeling, stronger effect = higher value, fragment at 500 µM.
Chain of UniProt P01116 (P01116 whole entry, looked up, the tested form may be a part): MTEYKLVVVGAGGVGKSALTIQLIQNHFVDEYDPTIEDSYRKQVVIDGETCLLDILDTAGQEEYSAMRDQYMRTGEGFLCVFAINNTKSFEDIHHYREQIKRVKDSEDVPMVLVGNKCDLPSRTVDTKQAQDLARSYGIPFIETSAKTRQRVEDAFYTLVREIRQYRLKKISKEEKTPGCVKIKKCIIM
The mark [1] stands for this setting: measured here: G75C mutant labeling.
Where [2] appears, read: measured here: H94C mutant labeling.
Setting [3] is: measured here: I36C mutant labeling.
[4] abbreviates: measured here: L120C mutant labeling.
Where [5] appears, read: measured here: M67C mutant labeling.
The mark [6] stands for this setting: measured here: M72C mutant labeling.
Setting [7] is: measured here: N86C mutant labeling.
The mark [8] stands for this setting: measured here: P121C mutant labeling.
Setting [9] is: measured here: S122C mutant labeling.
The mark [10] stands for this setting: measured here: S136C mutant labeling.
Setting [11] is: measured here: G60C mutant labeling.
[12] abbreviates: measured here: N26C mutant labeling.

SMILES strings stand for the structures. The list shows a part of the results. These are further read-outs of the screen, such as a control signal, another cell line or another target. No call is given for them.

Turning to `O=C(CCS)NCc1nnnn1CC1CC1`, the percent labeling turned out to be 13.8% under setting [1]; 31.9% under setting [2]; 39% under setting [3]; 30.1% under setting [4]; 32.1% under setting [5]; 23.5% under setting [6]. Further, the percent labeling came out at 38.1% under setting [7], 37.7% under setting [8], 35.4% under setting [9] and 48.9% under setting [10].
As to `O=C(NCCS)c1cc(-c2c[nH]c3ccccc23)n[nH]1`, the percent labeling reads like this: under setting [11], 18%; under setting [1], 15.8%; under setting [2], 12.6%; under setting [3], 9.9%; under setting [4], 17.3%; under setting [5], 28.5%. Further, the percent labeling amounted to 75.9% under setting [6]; 18.4% under setting [12]; 7.7% under setting [7]; 12.7% under setting [8]; 6.5% under setting [9]; 18.9% under setting [10].
Consider `O=C(CCS)N1CCN(c2ccccc2)C(=O)C1`, for which the percent labeling under setting [1] amounted to 10.7%; the percent labeling under setting [2] is 26.3%; the percent labeling under setting [3] was 37.9%; the percent labeling under setting [4] was 28.7%; the percent labeling under setting [5] is 27.5%; the percent labeling under setting [6] is 23.1%. Further, the percent labeling under setting [7] was found to be 23.9%, the percent labeling under setting [8] amounted to 34.7%, the percent labeling under setting [9] stood at 35.3% and the percent labeling under setting [10] amounted to 51.2%.
`O=C(CCS)N1CCC(c2nc(C3CC3)n[nH]2)CC1` gave a percent labeling under setting [1] of 10.7%; a percent labeling under setting [2] of 35.3%; a percent labeling under setting [3] of 38.1%; a percent labeling under setting [4] of 38.1%; a percent labeling under setting [5] of 41.2%; a percent labeling under setting [6] of 19.5%. Further, the percent labeling reads like this: under setting [7], 20.2%; under setting [8], 34.7%; under setting [9], 38.6%; under setting [10], 59.2%.
Consider `CN1CCN(Cc2ccc(CNC(=O)CCS)cc2)CC1`, for which the percent labeling is 14.2% under setting [1]; 36.1% under setting [2]; 50.8% under setting [3]; 34.6% under setting [4]; 51% under setting [5]; 27.2% under setting [6]. The compound further registered a percent labeling under setting [7] of 28%, a percent labeling under setting [8] of 31.3%, a percent labeling under setting [9] of 30.5% and a percent labeling under setting [10] of 46.9%.
In turn, `O=C(CCS)Nc1ccc(-c2ncc3n2CCCC3)cc1` came in with a percent labeling under setting [1] of 9.1%; a percent labeling under setting [2] of 15.7%; a percent labeling under setting [3] of 26.9%; a percent labeling under setting [4] of 21.6%; a percent labeling under setting [5] of 24.4%; a percent labeling under setting [6] of 42.1%. Besides, the percent labeling under setting [7] was 9%, the percent labeling under setting [8] turned out to be 16.6%, the percent labeling under setting [9] worked out at 15.4% and the percent labeling under setting [10] is 29.6%.
Regarding `CCCn1ccnc1-c1cccc(NC(=O)CCS)c1`, the percent labeling amounted to 20% under setting [1]; 36.5% under setting [2]; 37.6% under setting [3]; 28.2% under setting [4]; 33.6% under setting [5]; 38.7% under setting [6]. Moreover, the percent labeling reads like this: under setting [7], 28.1%; under setting [8], 30.3%; under setting [9], 27.4%; under setting [10], 64.1%.
On to `O=C(CN1C(=O)C2CCCCC2C1=O)NCCS` (configuration not stated), for which the percent labeling under setting [11] stood at 27.7%; the percent labeling under setting [1] is 11.8%; the percent labeling under setting [2] is 32.2%; the percent labeling under setting [3] stood at 21%; the percent labeling under setting [4] amounted to 44.2%; the percent labeling under setting [5] came to 27.6%. Moreover, the percent labeling under setting [6] is 25.7%; the percent labeling under setting [12] was 35.6%; the percent labeling under setting [7] was 32%; the percent labeling under setting [8] was 34.7%; the percent labeling under setting [9] came to 38%; the percent labeling under setting [10] is 37.7%.
Turning to `O=C(CCCOc1ccc2c(c1)OCO2)NCCS`, the percent labeling was determined as 37.1% under setting [11]; 19.1% under setting [1]; 26.9% under setting [2]; 18.7% under setting [3]; 34.5% under setting [4]; 22.5% under setting [5]. For the same compound, the percent labeling was 28% under setting [6]; 36.4% under setting [12]; 23.8% under setting [7]; 22.7% under setting [8]; 21.5% under setting [9]; 28.8% under setting [10].
As to `Cn1c(=O)oc2cc(NC(=O)CCS)ccc21`, the percent labeling is, setting by setting: under setting [1], 9.1%; under setting [2], 17.5%; under setting [3], 28.8%; under setting [4], 17.6%; under setting [5], 21.1%; under setting [6], 27.1%. The percent labeling was 10.5% under setting [7], 16.8% under setting [8], 14.2% under setting [9] and 30.9% under setting [10].
`CC(C(=O)NCCS)N1C(=O)c2ccccc2C1=O` (configuration not stated): the percent labeling reads like this: under setting [11], 38.3%; under setting [1], 13.2%; under setting [2], 30.9%; under setting [3], 26.2%; under setting [4], 44.8%; under setting [5], 36.7%. For the same compound, the percent labeling reads like this: under setting [6], 34.6%; under setting [12], 34.3%; under setting [7], 28.2%; under setting [8], 33.6%; under setting [9], 33.4%; under setting [10], 42.8%.
With `O=C(NCCS)c1ccc2cncc(Br)c2n1`, the percent labeling runs as follows: under setting [11], 23.5%; under setting [1], 33.8%; under setting [2], 22.5%; under setting [3], 13.7%; under setting [4], 19.1%; under setting [5], 14.7%. This compound gave a percent labeling under setting [6] of 48.8%; a percent labeling under setting [12] of 32.4%; a percent labeling under setting [7] of 12.6%; a percent labeling under setting [8] of 12.9%; a percent labeling under setting [9] of 8.2%; a percent labeling under setting [10] of 19.8%.
Turning to `O=C(NCCS)c1ccc(F)c2ccsc12`, the percent labeling was determined as 44.2% under setting [11]; 13.1% under setting [1]; 23.3% under setting [2]; 8.6% under setting [3]; 10.9% under setting [4]; 7.5% under setting [5]. For the same compound, the percent labeling was 46.3% under setting [6]; 27.5% under setting [12]; 6.6% under setting [7]; 12% under setting [8]; 8.4% under setting [9]; 20.1% under setting [10].
`O=C(CCS)NCC1(c2ccccc2)CCOCC1`: the percent labeling was determined as 13.8% under setting [1]; 42.8% under setting [2]; 44.6% under setting [3]; 36.6% under setting [4]; 42.5% under setting [5]; 32.7% under setting [6]. In addition, the percent labeling runs as follows: under setting [7], 31.2%; under setting [8], 39%; under setting [9], 41.1%; under setting [10], 65.7%.
For the compound `O=C(NCCS)c1[nH]c2ccc(Cl)cc2c1Cl`, the percent labeling runs as follows: under setting [11], 52.7%; under setting [1], 18.7%; under setting [2], 16.6%; under setting [3], 21.3%; under setting [4], 20.7%; under setting [5], 10.9%. In addition, the percent labeling under setting [6] was 60.4%; the percent labeling under setting [12] was 35.7%; the percent labeling under setting [7] was 15.2%; the percent labeling under setting [8] was determined as 17%; the percent labeling under setting [9] was found to be 5.7%; the percent labeling under setting [10] stood at 18.6%.
For `COC(=O)c1cc2n(n1)CCCC2NC(=O)CCS` (configuration not stated), the percent labeling stood at 10.4% under setting [1]; 29.2% under setting [2]; 34.1% under setting [3]; 28.4% under setting [4]; 38.4% under setting [5]; 22.8% under setting [6]. Moreover, the percent labeling is, setting by setting: under setting [7], 37.8%; under setting [8], 32.5%; under setting [9], 30.8%; under setting [10], 49.6%.
With `O=C(/C=C/c1ccc(O)c(O)c1)NCCS`, the percent labeling reads like this: under setting [1], 17.9%; under setting [2], 34.3%; under setting [3], 26.7%; under setting [4], 32.9%; under setting [5], 33%; under setting [6], 52.4%. Besides, the percent labeling came out at 34.6% under setting [7], 30% under setting [8], 36.9% under setting [9] and 46.9% under setting [10].
As to `CN1C[C@@H](C(=O)NCCS)[C@H](c2ccccc2)C1`, the percent labeling was 44.6% under setting [11]; 17.6% under setting [1]; 40.1% under setting [2]; 41% under setting [3]; 30.9% under setting [4]; 52.9% under setting [5]. Moreover, the percent labeling came to 24% under setting [6]; 41.2% under setting [12]; 26.1% under setting [7]; 31.4% under setting [8]; 26.1% under setting [9]; 64.6% under setting [10].
Regarding `O=C(NCCS)c1[nH]ccc1-c1c(Cl)cccc1Cl`, the percent labeling was 47.6% under setting [11]; 12.3% under setting [1]; 22.6% under setting [2]; 16.2% under setting [3]; 22.8% under setting [4]; 15% under setting [5]. Further, the percent labeling by setting is: under setting [6], 68.2%; under setting [12], 27.3%; under setting [7], 15.1%; under setting [8], 15.5%; under setting [9], 9.1%; under setting [10], 15.5%.
On to `CC(C)C(NC(=O)c1ccc(Cl)cc1)C(=O)NCCS` (configuration not stated), for which the percent labeling reads like this: under setting [11], 37.2%; under setting [1], 18%; under setting [2], 24.2%; under setting [3], 17.3%; under setting [4], 32%; under setting [5], 18.1%. Further, the percent labeling amounted to 20.9% under setting [6]; 30.4% under setting [12]; 15.7% under setting [7]; 20.5% under setting [8]; 14.4% under setting [9]; 21.6% under setting [10].
Take `Cc1sc(NC(=O)CCS)nc1-c1ccccc1`: the percent labeling reads like this: under setting [1], 17.4%; under setting [2], 17.6%; under setting [3], 16.6%; under setting [4], 15.8%; under setting [5], 16.3%; under setting [6], 44.2%. In addition, the percent labeling reads like this: under setting [7], 16.5%; under setting [8], 15.1%; under setting [9], 12.1%; under setting [10], 42.6%.
Consider `CC(C)c1cccc(N2CC(C(=O)NCCS)CC2=O)c1` (configuration not stated), for which the percent labeling is, setting by setting: under setting [11], 34.3%; under setting [1], 23.7%; under setting [2], 31.6%; under setting [3], 21.2%; under setting [4], 32.5%; under setting [5], 22.6%. Besides, the percent labeling runs as follows: under setting [6], 32.7%; under setting [12], 37.2%; under setting [7], 20.4%; under setting [8], 25.7%; under setting [9], 22.1%; under setting [10], 35.8%.
In the case of `N#Cc1cn(CC(F)(F)F)nc1NC(=O)CCS`, the percent labeling was determined as 17.3% under setting [1]; 35.3% under setting [2]; 37.6% under setting [3]; 34.2% under setting [4]; 36.2% under setting [5]; 24.8% under setting [6]. Besides, the percent labeling is, setting by setting: under setting [7], 30.3%; under setting [8], 32.9%; under setting [9], 34.5%; under setting [10], 45.9%.
